{"source": "paper PMC4336329", "about": "(PLoS ONE, 2015)", "note": "The whole screen tested about 310,000 compounds, of which about 2,200 (0.71%) showed an effect of 50% or more. The effect is printed as a negative number. This is one part of the list.", "data": [{"biological_target": "human ether-à-go-go-related gene (hERG) potassium channel (human, UniProt Q12809)", "sequence (Q12809 whole entry, looked up)": "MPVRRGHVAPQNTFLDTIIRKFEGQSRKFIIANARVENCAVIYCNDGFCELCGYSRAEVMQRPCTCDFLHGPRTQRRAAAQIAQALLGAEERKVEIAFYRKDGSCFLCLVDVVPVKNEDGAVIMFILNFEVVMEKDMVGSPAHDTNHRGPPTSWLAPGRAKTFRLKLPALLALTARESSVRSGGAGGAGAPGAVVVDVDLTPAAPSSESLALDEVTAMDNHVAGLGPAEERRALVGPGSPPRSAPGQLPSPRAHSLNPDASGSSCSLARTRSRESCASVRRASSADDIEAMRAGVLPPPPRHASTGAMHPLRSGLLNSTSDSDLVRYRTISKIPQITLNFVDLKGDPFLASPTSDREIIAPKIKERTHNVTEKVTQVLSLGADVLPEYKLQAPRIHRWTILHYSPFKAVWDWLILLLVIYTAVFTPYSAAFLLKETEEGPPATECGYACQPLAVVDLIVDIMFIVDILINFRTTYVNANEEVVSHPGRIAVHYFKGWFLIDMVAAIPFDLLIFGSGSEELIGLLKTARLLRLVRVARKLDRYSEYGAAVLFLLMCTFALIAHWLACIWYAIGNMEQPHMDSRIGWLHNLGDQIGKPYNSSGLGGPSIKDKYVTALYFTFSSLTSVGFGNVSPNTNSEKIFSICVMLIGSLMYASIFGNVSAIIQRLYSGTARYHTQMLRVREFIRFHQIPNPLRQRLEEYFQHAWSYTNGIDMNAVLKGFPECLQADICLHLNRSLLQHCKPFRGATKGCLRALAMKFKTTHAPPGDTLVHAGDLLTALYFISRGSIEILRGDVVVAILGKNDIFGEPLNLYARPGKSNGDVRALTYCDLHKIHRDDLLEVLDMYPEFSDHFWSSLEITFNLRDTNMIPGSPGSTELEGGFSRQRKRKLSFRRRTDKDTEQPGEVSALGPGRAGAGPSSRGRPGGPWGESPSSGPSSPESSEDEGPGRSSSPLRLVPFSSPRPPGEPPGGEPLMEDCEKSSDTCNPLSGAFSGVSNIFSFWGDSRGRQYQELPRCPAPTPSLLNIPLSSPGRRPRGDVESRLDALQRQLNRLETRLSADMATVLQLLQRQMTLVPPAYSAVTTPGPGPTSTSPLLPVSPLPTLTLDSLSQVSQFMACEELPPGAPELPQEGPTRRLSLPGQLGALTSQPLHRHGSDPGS", "test": "primary screen, population patch clamp on CHO cells stably expressing hERG", "units": {"hERG current change (%, negative = inhibition) at 1uM": "%"}, "values": [{"smiles": "COc1ccc(NC(=S)NC(=O)C2CCC2)cc1", "hERG current change (%, negative = inhibition) at 1uM": 12.8}, {"smiles": "O=C(CSc1nnnn1C1CCCCC1)NCc1cccs1", "hERG current change (%, negative = inhibition) at 1uM": 4.39}, {"smiles": "COc1ccc(S(=O)(=O)N2CCN(c3ccccc3OC)CC2)cc1C(=O)N1CCCCC1", "hERG current change (%, negative = inhibition) at 1uM": 10.6}, {"smiles": "CCCOc1ccc(C(=O)ON=C2CCN(C)CC2)cc1.Cl", "hERG current change (%, negative = inhibition) at 1uM": 10.9}, {"smiles": "COC(=O)C(Cc1ccccc1)NC(=O)CNC(=O)c1ccccc1OC", "note": "(stereo not drawn)", "hERG current change (%, negative = inhibition) at 1uM": 8.29}, {"smiles": "O=C(COc1ccc(Cl)cc1)NNC(=O)c1ccccn1", "hERG current change (%, negative = inhibition) at 1uM": 9.13}, {"smiles": "O=C(NCC1CCCO1)c1onc(CSc2cccc(Cl)c2)c1C(=O)O", "note": "(stereo not drawn)", "hERG current change (%, negative = inhibition) at 1uM": 3.1}, {"smiles": "Cc1cccc(C(=O)N2CCCC(N3CCN(c4ccccc4)CC3)C2)n1", "note": "(stereo not drawn)", "hERG current change (%, negative = inhibition) at 1uM": 10.3}, {"smiles": "CCC(=O)Nc1cccc(NC(=S)NC(=O)c2ccccc2)c1", "hERG current change (%, negative = inhibition) at 1uM": 0.4}, {"smiles": "Cc1ccc(NC(=O)C(C)N2C(=O)c3ccccc3C2=O)cc1C", "note": "(stereo not drawn)", "hERG current change (%, negative = inhibition) at 1uM": 13.3}, {"smiles": "Oc1ccccc1N1CCN(c2ncnc3sc(-c4ccccc4)cc23)CC1", "hERG current change (%, negative = inhibition) at 1uM": 1.79}, {"smiles": "COC(=O)c1cnc2c(C(F)(F)F)cccc2c1OC", "hERG current change (%, negative = inhibition) at 1uM": -4.9}, {"smiles": "CCCn1ncc(CN2CCCC(C(=O)c3cccc(OC)c3)C2)c1C", "note": "(stereo not drawn)", "hERG current change (%, negative = inhibition) at 1uM": -21.4}, {"smiles": "CCc1nc2ccccc2n1Cc1ccc(F)cc1", "hERG current change (%, negative = inhibition) at 1uM": 3.72}, {"smiles": "CC(C)(C)CC(=O)Nc1cc(S(=O)(=O)N2CCCCCC2)ccc1Cl", "hERG current change (%, negative = inhibition) at 1uM": 27.8}, {"smiles": "CCOC(=O)c1[nH]c(C)c(CN(Cc2ccco2)C(=O)C(F)(F)F)c1C", "hERG current change (%, negative = inhibition) at 1uM": 4.67}, {"smiles": "CC1C(=O)C(C)C(c2cccc(Br)c2)NC1c1cccc(Br)c1", "note": "(stereo not drawn)", "hERG current change (%, negative = inhibition) at 1uM": 15}, {"smiles": "O=C(NC(=S)NCc1ccccc1)c1ccccc1", "hERG current change (%, negative = inhibition) at 1uM": 14.9}, {"smiles": "N#Cc1cccc(CN2CCC(=O)N(CCO)CC2)c1", "hERG current change (%, negative = inhibition) at 1uM": 13.3}, {"smiles": "CCc1nnc(NC(=O)c2ccc3c(c2)C(=O)N(CC)C3=O)s1", "hERG current change (%, negative = inhibition) at 1uM": 0.526}, {"smiles": "O=C(NC1CCCC1)C(c1ccc(Cl)cc1)N(Cc1ccc(F)cc1)C(=O)CCl", "note": "(stereo not drawn)", "hERG current change (%, negative = inhibition) at 1uM": 17.8}, {"smiles": "CCOc1ccc2c(O)csc2c1", "hERG current change (%, negative = inhibition) at 1uM": 19.1}, {"smiles": "NNC(=O)Cn1cnc2ccccc21", "hERG current change (%, negative = inhibition) at 1uM": 3.34}, {"smiles": "O=C(Nc1ccc(F)cc1)Nc1nnc(Cc2ccccc2F)s1", "hERG current change (%, negative = inhibition) at 1uM": 5.91}, {"smiles": "CS(=O)(=O)N1CCN(c2nc3ccc(Cl)cc3s2)CC1", "hERG current change (%, negative = inhibition) at 1uM": 11.1}, {"smiles": "CN(CC(=O)Nc1cccc(F)c1)C(=O)C1CCN(C(=O)c2ccc(Cl)cc2)CC1", "hERG current change (%, negative = inhibition) at 1uM": -14.7}, {"smiles": "CC(Oc1ccccc1F)C(=O)NCCN1CCCCC1", "note": "(stereo not drawn)", "hERG current change (%, negative = inhibition) at 1uM": 8.89}]}]}
